{"source": "PubChem BioAssay AID1476", "about": "(National Center for Advancing Translational Sciences (NCATS), 2009)", "note": "Among all 200,000 compounds or so, about 4,500 (2.2%) were called active. The shares of active, inactive and inconclusive entries below differ from those in the screen. Calls follow the shape of the dose curve; as a rule, active = well fitted inhibition curve with a large enough effect; inconclusive = small, poorly fitted or top-dose-only effect, or effect the other way; inactive = flat fitted curve, though single readings scatter. A potency beside an inconclusive call is a rough fit, not a confirmed value. Potency is read from the fitted curve at half-maximal effect; tags tell the direction and shape of the fitted curve.", "data": [{"molecular_target": "Cruzipain (Trypanosoma cruzi) (UniProt P25779)", "sequence (P25779 whole entry, looked up)": "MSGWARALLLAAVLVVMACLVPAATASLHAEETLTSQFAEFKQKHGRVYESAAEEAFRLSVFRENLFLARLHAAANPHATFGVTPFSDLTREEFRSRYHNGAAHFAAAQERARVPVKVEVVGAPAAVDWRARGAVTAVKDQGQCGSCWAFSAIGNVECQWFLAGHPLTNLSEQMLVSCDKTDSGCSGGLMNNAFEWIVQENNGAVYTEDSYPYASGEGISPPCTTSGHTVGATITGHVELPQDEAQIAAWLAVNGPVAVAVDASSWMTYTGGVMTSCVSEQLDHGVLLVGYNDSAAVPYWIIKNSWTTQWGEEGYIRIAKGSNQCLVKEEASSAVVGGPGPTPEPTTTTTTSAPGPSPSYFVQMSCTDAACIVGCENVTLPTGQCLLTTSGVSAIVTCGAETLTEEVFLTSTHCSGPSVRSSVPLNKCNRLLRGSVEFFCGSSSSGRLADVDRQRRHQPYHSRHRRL", "assay": "qHTS Assay for Promiscuous and Specific Inhibitors of Cruzain (without detergent); also: nearly all actives have a fitted effect of over 40% in size;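 as to max response, negative = inhibition: plate controls were enzyme without inhibitor for no effect and buffer without enzyme for full effect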", "conditions": "purified cruzain, Z-FR-AMC fluorescence, no detergent", "summary_of_the_method": "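Purified cruzain at 1.5 nM, pre-incubated 15 min with compound at room temperature in 100 mM sodium acetate pH 5.5, 5 mM DTT, 0.00005% Triton X-100. Reaction started with 2 uM Z-FR-AMC; AMC fluorescence increase over 60 s gives rate.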", "values": [{"smiles": "CN1/C(=C\\C(=O)COC(=O)CNC(=O)c2ccc3ccccc3c2)C(C)(C)c2ccccc21", "Potency": "active: 25.1 µM"}, {"smiles": "Cc1nc([N+](=O)[O-])c(Sc2nc3ccccc3n2C)n1Cc1ccccc1", "max response, negative = inhibition": "inactive: 6.59%"}, {"smiles": "CCOc1cc(N2CCOCC2)c(OCC)cc1NC(=O)COC(=O)c1cccc2ccccc12", "Potency": "inconclusive: 39.8 µM [activator, single point]"}, {"smiles": "COc1ccc(-c2cc(C3CCN(c4ccc(C(C)=O)cc4[N+](=O)[O-])CC3)[nH]n2)cc1", "Potency": "inconclusive: 20 µM [inhibitor, partial curve]"}, {"smiles": "COc1ccc(C)cc1NS(=O)(=O)c1ccc(-c2cnc(C3CC3)o2)cc1", "Potency": "inconclusive: 39.8 µM [activator, single point]"}, {"smiles": "COc1ccc(CNS(=O)(=O)c2ccc3c(c2)NC(=O)C(C)C(=O)N3)cc1", "note": "(centres undefined)", "Potency": "inconclusive: 39.8 µM [activator, single point]"}, {"smiles": "Cc1ccc(C)c(S(=O)(=O)Nc2ccc3c(c2)CCCN3C(=O)c2cccs2)c1", "Potency": "inconclusive: 25.1 µM [inhibitor, single point]"}, {"smiles": "COc1ccc(/C=C/c2nc(C#N)c(N3CCCCCC3)o2)cc1OC", "Potency": "inconclusive: 39.8 µM [activator, single point]"}, {"smiles": "Nc1nc(Cl)cc(Sc2ccc(F)cc2)n1", "Potency": "inconclusive: 39.8 µM [inhibitor, single point]"}, {"smiles": "O=C(Cn1cc(S(=O)(=O)c2ccc(Cl)cc2)c(=O)c2ccccc21)Nc1ccc2c(c1)OCO2", "max response, negative = inhibition": "inactive: -18.6%"}, {"smiles": "CCCCSc1nnc2c(n1)[nH]c1ccccc12", "Potency": "active: 25.1 µM"}, {"smiles": "CCn1c2ccccc2c2nnc(N3CCN(c4ccc(OC)cc4)CC3)nc21", "max response, negative = inhibition": "inactive: -0.428%"}, {"smiles": "Cc1cc(-c2ccc(N=Nc3cc(S(=O)(=O)O)c4ccccc4c3N)c(C)c2)ccc1N=Nc1cc(S(=O)(=O)O)c2ccccc2c1N", "Potency": "inconclusive: 7.94 µM [activator, full curve]"}, {"smiles": "COc1ccc(-c2c/c(=N\\c3nc(-c4ccccc4)c(C)s3)c3ccccc3o2)cc1O", "Potency": "active: 10 µM"}, {"smiles": "O=C(Nc1ccccc1N1CCCCC1)c1ccc2nccnc2c1", "Potency": "inconclusive: 31.6 µM [activator, single point]"}, {"smiles": "Cc1nc(-c2ccc(S(=O)(=O)N(C)Cc3ccccc3)cc2)co1", "max response, negative = inhibition": "inactive: -5.29%"}, {"smiles": "O=C(N/N=C/c1ccc(OCc2ccccc2)cc1)c1cccs1", "Potency": "inconclusive: 31.6 µM [inhibitor, single point]"}, {"smiles": "CN1CCN(S(=O)(=O)c2ccc(Br)c3nsnc23)CC1", "max response, negative = inhibition": "inactive: -7.47%"}, {"smiles": "COc1ccccc1CNC(=O)c1ccc(CSc2nc3ccncc3n2Cc2ccccc2C)cc1", "Potency": "inconclusive: 39.8 µM [inhibitor, single point]"}]}]}
